Measurements published in patent publication EP4763863A1 (Carbiogene Therapeutics Co., Ltd., dated 2026).

Molecular target: T1, BCMA (CD269, TNFRSF17) expressed on cells (human, UniProt Q02223 1-184)
T1 construct: whole, on cells; also called BCMA antigen molecule expressed on tumor cells; K562-BCMA cells
T1 sequence (looked up): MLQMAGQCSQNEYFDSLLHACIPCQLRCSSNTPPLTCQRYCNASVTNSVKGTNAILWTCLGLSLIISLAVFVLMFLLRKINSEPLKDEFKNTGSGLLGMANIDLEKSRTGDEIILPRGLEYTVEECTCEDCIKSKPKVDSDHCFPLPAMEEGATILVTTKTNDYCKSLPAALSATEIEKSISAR
Test: flow cytometry (MFI) of FITC-BCMA-VHH-54-hFc titrated on K562-BCMA cells; KD from a double-reciprocal linear regression

Kd: 26.9 nM
B1: FITC-BCMA-VHH-54-hFc (Fc fusion)
chain: QLQLVESGGGLVQPGGSLKLSCAASGFTFKDYAMNWYRQAPGKEREWVALISSDGGTTEYEQSVKGRFTISRDNAKNTVYLQMNSVKPEDTAVYRCNKFGAGSYNYWGQGTLVTVSS[human IgG1 Fc with changes not spelt out]
modifications: FITC label (Pierce NHS-Fluorescein Antibody Labeling Kit); labelled residues not stated
notes: Anti-BCMA alpaca single-domain antibody fused at its C-terminus to human IgG1 Fc; Expressed in HEK293 cells, purified on Protein A and labelled with FITC for flow cytometry; also called FITC-labeled BCMA-VHH-54 antibody; BCMA-FITC
